According to paper PMC4336329 (PLoS ONE, 2015):
About 14,000 (4.5%) of roughly 310,000 compounds showed an effect of 50% or more. The effect is printed as a negative number. This is one part of the list.

The compounds below were run against human ether-à-go-go-related gene (hERG) potassium channel (human, UniProt Q12809) (assay: primary screen, population patch clamp on CHO cells stably expressing hERG).
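Also: peak tail current of the secondary pulse compared with the same well before compound.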

human ether-à-go-go-related gene (hERG) potassium channel, sequence (Q12809 whole entry, looked up): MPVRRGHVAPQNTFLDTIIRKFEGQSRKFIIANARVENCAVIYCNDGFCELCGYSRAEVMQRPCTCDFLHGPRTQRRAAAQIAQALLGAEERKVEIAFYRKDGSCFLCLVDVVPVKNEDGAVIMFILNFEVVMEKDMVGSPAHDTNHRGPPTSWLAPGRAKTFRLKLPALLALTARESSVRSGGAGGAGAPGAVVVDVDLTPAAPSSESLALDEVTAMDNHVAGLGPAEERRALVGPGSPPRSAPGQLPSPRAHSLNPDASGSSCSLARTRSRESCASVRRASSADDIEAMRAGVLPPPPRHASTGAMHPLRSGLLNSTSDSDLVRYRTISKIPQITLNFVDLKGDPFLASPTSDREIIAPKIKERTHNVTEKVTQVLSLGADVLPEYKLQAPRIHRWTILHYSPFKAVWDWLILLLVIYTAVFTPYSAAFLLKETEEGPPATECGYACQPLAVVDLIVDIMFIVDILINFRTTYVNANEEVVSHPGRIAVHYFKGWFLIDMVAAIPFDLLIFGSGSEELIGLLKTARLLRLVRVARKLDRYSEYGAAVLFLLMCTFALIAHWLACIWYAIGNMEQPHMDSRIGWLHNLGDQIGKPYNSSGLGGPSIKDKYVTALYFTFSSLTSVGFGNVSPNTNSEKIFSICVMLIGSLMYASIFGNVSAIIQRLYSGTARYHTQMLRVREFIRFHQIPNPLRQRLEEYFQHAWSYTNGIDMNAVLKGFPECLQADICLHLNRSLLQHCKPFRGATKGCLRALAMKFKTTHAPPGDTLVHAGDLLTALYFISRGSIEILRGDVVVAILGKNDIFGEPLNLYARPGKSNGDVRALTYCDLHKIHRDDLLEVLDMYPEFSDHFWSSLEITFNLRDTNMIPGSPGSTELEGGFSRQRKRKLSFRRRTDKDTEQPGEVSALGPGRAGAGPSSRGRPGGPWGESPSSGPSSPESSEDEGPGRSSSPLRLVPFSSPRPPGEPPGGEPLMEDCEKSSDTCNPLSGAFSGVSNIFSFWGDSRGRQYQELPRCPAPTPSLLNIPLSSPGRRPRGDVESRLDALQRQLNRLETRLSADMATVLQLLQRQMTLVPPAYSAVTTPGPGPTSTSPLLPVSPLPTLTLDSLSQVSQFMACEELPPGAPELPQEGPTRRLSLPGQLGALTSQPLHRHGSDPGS

Compound | hERG current change (%, negative = inhibition) at 10uM [%]
CCc1ccccc1NC1c2ccccc2C(=O)N1c1cc(C)ccn1 (stereo not shown) | -1.18
CCOC(=O)C1(Cc2cccc(OC)c2)CCN(CC2CC=CCC2)CC1 (stereo not shown) | -71.7
O=C(NC1CCCc2c1cnn2-c1cc(F)cc(F)c1)c1cc[n+]([O-])cc1 (stereo not shown) | -37.1
CCOc1ncccc1C(=O)NNC(=O)c1ccc(NS(=O)(=O)c2cccs2)cc1 | 13
Cc1nccn1CC(=O)N/N=C/c1ccccc1O | -10.2
COc1cccc(-c2c(C(=O)N/N=C(\C)COc3ccccc3)nnn2-c2nonc2N)c1 | -27.2
ClC1CCCCC1n1nnc2ccccc21 (stereo not shown) | 10.2
CCOC(=O)N1CCN(C(=O)CSCC(=O)Nc2nc(-c3ccc(C)cc3)cs2)CC1 | -14.1
COc1ccc(S(=O)(=O)Nc2ccc(-c3ccc4nnc(C)n4n3)cc2)c(OC)c1 | 10.2
Cn1c(=O)n(Cc2ccccc2)c(=O)c2c1nc1n2CCCN1Cc1ccccc1 | -31.1
Cc1ccccc1CC(=O)N(CCN(C)C)CC1CCCN(Cc2ccccc2F)C1 (stereo not shown) | 1.19
Cc1cc(NC(=O)CCC(=O)N(c2ccccc2)C(C(=O)NCC2CCCO2)c2cccnc2)no1 (stereo not shown) | -3.41
O=C(Nc1ccc2c(c1)OCO2)c1ccccc1 | 5.43
O=[N+]([O-])c1cc(F)c2cccnc2c1O | 17.4
Nc1sc(-c2ccccc2)cc1-c1n[nH]c(=S)n1C1CCCCC1 | 20.3
CCCC(=O)OCC(=O)Nc1ccc(N=Nc2ccccc2)cc1 | -8.3
O=C(CSc1nc(Nc2ccccc2)nc(N2CCOCC2)n1)Nc1ccc2c(c1)OCCO2 | -7.99
CN(C)c1cc(Cl)c2nonc2c1N | 0.979
CCOC(=O)C1=C(C)NC(=O)NC1c1c(C)nn(-c2ccccc2)c1Cl (stereo not shown) | -0.17
CCOc1ccccc1N1CCN(C(=O)C(F)(F)F)CC1 | -1.42

Compound | hERG current change (%, negative = inhibition) at 10uM [%]
CCCCn1c(N)c(N(CCOC)C(=O)c2ccc(S(=O)(=O)N(CC)c3ccccc3)cc2)c(=O)[nH]c1=O | 8.17
COc1ccc(NC(=O)CN(C)C(=O)c2cc3c(s2)CCC(C)C3)cc1 (stereo not shown) | -2.05
COC(=O)c1c(NC(=O)CN2C(=O)NC3(CCC(C)CC3)C2=O)sc2c1CCC2 (stereo not shown) | -0.978
N#Cc1ccsc1NC(=O)CN1CCN(c2ccccc2)CC1 | 1.63
COc1ccc2cc(CN(Cc3cccs3)Cc3nnnn3Cc3ccccc3)c(=O)[nH]c2c1 | -11.3
CC(=O)c1ccc(NC(=O)/C(=C\c2ccc(F)cc2)NC(=O)c2ccco2)cc1 | -29.2
O=c1cc(Cn2nnc(-c3ccc(Cl)cc3)n2)nc2sccn12 | -34.1
CC(=O)Nc1ccc(S(=O)(=O)NCc2ccccn2)cc1 | 9.6
CCOc1ccc(NC(=O)N2CCC(C(N)=O)(N3CCCCC3)CC2)cc1 | -3.12
c1ccc(Cn2nnc3c(N4CCCCCC4)ncnc32)cc1 | -13.2
CCn1cc(C2C(C(=O)Nc3cc(C)ccn3)=C(C)NC3=C2C(=O)CC(C)(C)C3)c(C)n1 (stereo not shown) | 11.3
CCCN(CCC)C(=O)Cn1c2ccccc2c2nc(=O)cc(C)n21 | 2.47
COc1ccc(C2(O)C(=O)Nc3ccccc32)cc1 (stereo not shown) | 0.493
Cc1ccc(SCCC(=O)Nc2cccnc2)cc1 | 17.8
CN1CCC(CO)(Cc2ccccc2)CC1 | 16.2
Cn1c(=O)c2c(nc3n2CCCN3CCc2ccccc2)n(C)c1=O | -1.45
Cc1nc2c(C)cccn2c1C(=O)N/N=C/c1ccccc1[N+](=O)[O-] | 2.55
Cn1ccc(=NC=C(C#N)C#N)c2ccccc21 | 13.6
CSc1ccc(-c2ccco2)nn1 | 17.7
O=C(NCCC(=O)N1CCc2ccccc21)c1ccco1 | 6.04

Compound | hERG current change (%, negative = inhibition) at 10uM [%]
Cc1nc(C)c(-c2csc(Nc3ccc(O)c(C(=O)O)c3)n2)s1 | 20.5
O=C(NCC(=O)N(CCc1ccccc1)C(C(=O)NC1CCCC1)c1cccnc1)c1ccco1 (stereo not shown) | -43.8
C/C(=N\NC(=O)c1cccc(Cl)c1)C1C(=O)c2ccccc2C1=O | -10.5
CC(C)N=C(NC#N)SCc1ccc(Br)cc1 | 17.1
Cc1c(Br)ccc(NC(=O)COc2ccccc2C(N)=O)c1C | 21.1
O=C(OCC(=O)N1CCCC1=O)c1cc(S(=O)(=O)N2CCOCC2)ccc1F | -22.5
CCOC(=O)C1CCN(S(=O)(=O)c2c(C(=O)N3CCCCC3)c(C)n(C)c2C)CC1 | -5.52
CS(=O)(=O)c1cccc(-c2nnc(NC(=O)c3ccc4ncsc4c3)o2)c1 | 1.14
Cc1cc(Cl)ccc1OCCCC(=O)NCC1CCCO1 (stereo not shown) | -1.34
CN1C2C=C3C(C#N)=C(N)C(C#N)(C#N)C(c4ccc(Br)cc4)C3C1CC2 (stereo not shown) | -14.9
COC(=O)CCCCC(=O)OC | 17
O=C1NC2(CCCCC2)Oc2ccccc21 | 3.53
N#C/C(=C\c1cc2c(cc1Br)OCO2)C(=O)NCC1CCCO1 (stereo not shown) | -6.38
CCOC(=O)C1(CCOc2ccccc2)CCN(Cc2cnc(SC)nc2)CC1 | -72.2
COC(=O)c1ccc(OC)c(OC2CCCC2)c1 | 10.5
COc1cccc(CNC(=O)C2CCC(=O)N(CCc3cccc(F)c3)C2)c1 (stereo not shown) | -13
COc1cc(S(=O)(=O)NC2CCCC2)ccc1Cl | 6.42
COCCNC(=O)c1cc(-c2ccccc2)n(Cc2cc(C)no2)n1 | 0.26
